Results on 44 sequences are retold here after the supplement of paper PMC11417369.

± gives the standard deviation of the averaged measurements. Some of the results follow.

For the assay, the system named is PfAP2-I AP2 domain 3 (GST-tagged). As to the kind of experiment: gcPBM binding intensity (ln(normalized median fluorescence intensity)); higher = stronger DNA binding. In short, it runs like this: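 An Agilent 4 × 180k array carrying primer-extended double-stranded 36-bp intergenic genomic probes and negative controls received GST-tagged P. falciparum DNA-binding domains expressed in E. coli, about 25 μg on average, for 1 h. The binding buffer contained 1× PBS, 1% milk, 0.2 mg/ml BSA, 0.5% salmon testes DNA and 0.03% Triton X-100. Binding intensity is the top Masliner-normalised natural-log median intensity across replicate spots of either probe orientation, read after Alexa488 anti-GST antibody staining and a 488 nm scan.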
As for “CCCCTTAATTTATTTTGTACATATAATTTTTTTTTT [XGTACX_site3270]”, the “gcPBM binding intensity (ln)” value was 7.85 ± 0.34. Turning to “CTTGTATATAAACACACACACACTTTCTTTTTTTAA [CACACA_site8602]”, the “gcPBM binding intensity (ln)” value turned out to be 7.83 ± 0.57. As to “ACAAAAATAAGCAAATGTACATATGTATAATATATT [XGTACX_site2492]”, the “gcPBM binding intensity (ln)” value is 7.77 ± 0.58. In the case of “GTATTTTTAAATGACACACACATATATAAATATGTA [CACACA_site6880]”, the “gcPBM binding intensity (ln)” value came out at 7.83 ± 0.39.

In the case of “CTGGAGTTAAAAATGTGTACCTAAAAAATTTTGTTC [XGTACX_site5554]”, the “gcPBM binding intensity (ln)” value was determined as 7.87 ± 0.47. The figure for “ATTATTATATATAAAACACACAATTTTGTTTTCACA [CACACA_site3965]” is 7.74 ± 0.5; for “ATATAATAATATTAAAGTACATGCATATATATTTAT [XGTACX_site7422]” it is 7.71 ± 0.54; for “ACTATTTAAATGCAAAGTACTTTGATAATAAACAAT [XGTACX_site2608]” it is 7.99 ± 0.5. As to “TAATATAACAAAAAAATAAAATAAAATAAAAAATAA [CACACA_negctrl_site109]”, the “gcPBM binding intensity (ln)” value was determined as 7.49 ± 0.55. “ATTTTTTAAAAAAACATACACACAAAAAAAAAAAAA [CACACA_site3936]”: the “gcPBM binding intensity (ln)” value was found to be 7.99 ± 0.69.

For the sequence “CATAATATCTCTTTGTGTACATATAGTTATTATTAT [XGTACX_site7688]”, the “gcPBM binding intensity (ln)” value stood at 7.88 ± 0.52. The figure for “TGAAATGATATATAAACACACATATATATATATATA [CACACA_site3511]” is 9.38 ± 0.72. Turning to “ATTTTTAATGTGATCACACATAAATATTATATATAT [CACACA_site5641]”, the “gcPBM binding intensity (ln)” value was 8 ± 0.58. In the case of “GTATAAAAAAATATATGTACTTATTTACATATATAT [XGTACX_site4744]”, the “gcPBM binding intensity (ln)” value worked out at 7.79 ± 0.43.

Consider “ATATTATAATTGAAGGTGCAAAATGTAATATAGATA [GTGCAC_site9661]”, for which the “gcPBM binding intensity (ln)” value turned out to be 10.9 ± 0.49. In the case of “ATTCATTTTTTGGGGGGTACACCCTTTTAAACATTT [XGTACX_site4797]”, the “gcPBM binding intensity (ln)” value is 10.1 ± 0.22.

“ATTATTATTTAAAAAAGTACATTGAAGTTCATAATA [XGTACX_site3575]”: the “gcPBM binding intensity (ln)” value came out at 7.8 ± 0.42. With “CCCCCCCACAGACACACACACATACATACCACATAT [CACACA_site2306]”, the “gcPBM binding intensity (ln)” value is 10.3 ± 0.22. Consider “TTAAAGCTGACATATACACACATACATAAATTCATA [CACACA_site5377]”, for which the “gcPBM binding intensity (ln)” value was found to be 7.75 ± 0.42. To “TATACATATATTATATGTACATATATATATAATATA [XGTACX_site2942]” belongs 7.755 ± 0.007; to “ATATATATATAATAAACACACAAATAGATATAACAT [CACACA_site3715]”, 8.99 ± 0.014; to “GGACAAGTTTTTTACATAAATAAAAAAAATAAAAAA [XGTACX_negctrl_site125]”, 7.67 ± 0.61. To “AAAAAAAATACATACACACACACACCCACATATATA [CACACA_site3561]” belongs 8.03 ± 0.16; to “AATATAAAAAAAGAGGAGGGATGGTATACTTGTGGT [CACACA_negctrl_site986]”, 7.94 ± 0.78; to ATAGAAGGCAACTTGGTGCACAAAAAAAAAAATAAT, 11.6 ± 0.25. To “TTTTTTAAAAGATATATAATATGTATGAATATTCAA [XGTACX_negctrl_site380]” belongs 7.31 ± 0.49.

Regarding “AATGTGAAAAAAAAAAGTACAGACCTAATCAAAAAA [XGTACX_site2486]”, the “gcPBM binding intensity (ln)” value was 8.09 ± 0.38.

Turning to “CGAACAAACAAATAAACACACAAAAAAAAATATATA [CACACA_site1825]”, the “gcPBM binding intensity (ln)” value was found to be 7.62 ± 0.61.

In the case of “ATACTTATGATAAATACACACTTGAAATTAAGGATT [CACACA_site4772]”, the “gcPBM binding intensity (ln)” value was determined as 7.64 ± 0.57.

Regarding “CAACATATGCATATGTGTACATATTTTATTTTCAAC [XGTACX_site2237]”, the “gcPBM binding intensity (ln)” value came out at 7.76 ± 0.47. On to “ATATACTCATTAATAACACACAATATGATAACAAAT [CACACA_site5913]”, for which the “gcPBM binding intensity (ln)” value stood at 7.99 ± 0.59. Turning to “ACATACATATGTAAATGTACAAAATATCCATAGATT [XGTACX_site2782]”, the “gcPBM binding intensity (ln)” value is 7.54 ± 0.77. To “AATATATTTCATTTTTGTACACACAACGTTGGAGGG [XGTACX_site6461]” belongs 8.59 ± 0.47.

Regarding AGTGTTTTTTATAAAGTGCAATATAAAAACAAAATG, the “gcPBM binding intensity (ln)” value was determined as 11.3 ± 0.75. For the sequence “ATGTTATATATGTATTGTACGTATTTTGTATATTAT [XGTACX_site6607]”, the “gcPBM binding intensity (ln)” value came out at 8.12 ± 0.23. The figure for “AATTTTTTTTTATTGTGTACTTATTTTTTTATATTT [XGTACX_site917]” is 8.14 ± 0.4. The figure for “TTTTATTTCATTTGTTGTACTTTCAAAATATTATTA [XGTACX_site2192]” is 8.09 ± 0.47; for “AAGAATAAAGAATGGTGTACATGCATATAAAATATT [XGTACX_site5707]” it is 8.13 ± 0.77; for “GTAATTTTGAGATGATGTACATATTTTTTCCTTGTC [XGTACX_site4103]” it is 7.81 ± 0.69. With “GATAAATCATATATAACACACATATGAATATTACAA [CACACA_site1321]”, the “gcPBM binding intensity (ln)” value was 7.72 ± 0.52. For the sequence “AAAAGAAACTTATTTACGCACACTTTATTGCATGTT [CACACA_site3887]”, the “gcPBM binding intensity (ln)” value is 9.18 ± 0.19. In the case of “TAAGATATATTTTTTTGTACACATAATAAAATAATA [XGTACX_site8938]”, the “gcPBM binding intensity (ln)” value was 7.59 ± 0.38. “ATAATGTAGAACTAGAGTACATAAAAAAATAAACAT [XGTACX_site5205]”: the “gcPBM binding intensity (ln)” value is 8.32 ± 0.57. As to “GCTACACAATTTTTTAGTACACACATATAAATATAT [XGTACX_site3131]”, the “gcPBM binding intensity (ln)” value was 8.4 ± 0.21.
